Reference: the supplement of paper PMC8728848
The other results are listed elsewhere or left out.

Tests used:
Assay in all cases: glycan array binding signal (z-score within array); higher = stronger binding
Conditions in all cases: glycan notation: IUPAC condensed, linker removed
Gal(a1-6)Glc = molecular target: Gal(a1-6)Glc
In short: (§1)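 Glycan array data were curated from 3228 arrays in the Consortium for Functional Glycomics database and kept only where the protein sequence was available. Glycan names were converted to IUPAC-condensed notation, and columns mapping to the same glycan were averaged. The binding signal is a within-array Z-score, averaged across arrays of the same protein sequence at different concentrations or buffers and across linkers. Negative Z-scores can be read as non-binding.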

Gal(b1-2)Gal = molecular target: Gal(b1-2)Gal
In short: as §1

Gal(b1-3)Gal = molecular target: Gal(b1-3)Gal
In short: as §1

Gal(b1-3)Gal(b1-4)GlcNAc = molecular target: Gal(b1-3)Gal(b1-4)GlcNAc
In short: as §1

Gal(b1-3)GalNAc = molecular target: Gal(b1-3)GalNAc
In short: as §1

[1] = molecular target: Gal(b1-3)GalNAc(a1-3)[Fuc(a1-2)]Gal(b1-4)Glc
In short: as §1

[2] = molecular target: Gal(b1-3)GalNAc(a1-3)[Fuc(a1-2)]Gal(b1-4)GlcNAc
In short: as §1

Gal(b1-3)GalNAc(b1-3)Gal = molecular target: Gal(b1-3)GalNAc(b1-3)Gal
In short: as §1

[3] = molecular target: Gal(b1-3)GalNAc(b1-3)Gal(a1-4)Gal(b1-4)Glc
In short: as §1

[4] = molecular target: Gal(b1-3)GalNAc(b1-4)Gal(b1-4)Glc
In short: as §1

[5] = molecular target: Gal(b1-3)GalNAc(b1-4)[Neu5Ac(a2-3)]Gal(b1-4)Glc
In short: as §1

Gal(b1-3)GlcNAc = molecular target: Gal(b1-3)GlcNAc
In short: as §1

[6] = molecular target: Gal(b1-3)GlcNAc(a1-3)Gal(b1-4)GlcNAc
In short: as §1

[7] = molecular target: Gal(b1-3)GlcNAc(a1-6)Gal(b1-4)GlcNAc
In short: as §1

Gal(b1-3)GlcNAc(b1-2)Man = molecular target: Gal(b1-3)GlcNAc(b1-2)Man
In short: as §1

[8] = molecular target: Gal(b1-3)GlcNAc(b1-2)Man(a1-3)[Gal(b1-3)GlcNAc(b1-2)Man(a1-6)]Man(b1-4)GlcNAc(b1-4)GlcNAc
In short: as §1

[9] = molecular target: Gal(b1-3)GlcNAc(b1-2)Man(a1-3)[Gal(b1-3)GlcNAc(b1-2)Man(a1-6)]Man(b1-4)GlcNAc(b1-4)[Fuc(a1-6)]GlcNAc
In short: as §1

[10] = molecular target: Gal(b1-3)GlcNAc(b1-2)Man(a1-3)[GlcNAc(b1-4)][Gal(b1-3)GlcNAc(b1-2)Man(a1-6)]Man(b1-4)GlcNAc(b1-4)GlcNAc
In short: as §1

[11] = molecular target: Gal(b1-3)GlcNAc(b1-2)[Gal(b1-3)GlcNAc(b1-6)]Man(a1-6)[Gal(b1-3)GlcNAc(b1-2)Man(a1-3)]Man(b1-4)GlcNAc(b1-4)GlcNAc
In short: as §1

[12] = molecular target: Gal(b1-3)GlcNAc(b1-3)Gal(b1-3)GlcNAc
In short: as §1

[13] = molecular target: Gal(b1-3)GlcNAc(b1-3)Gal(b1-4)Glc
In short: as §1

[14] = molecular target: Gal(b1-3)GlcNAc(b1-3)Gal(b1-4)GlcNAc
In short: as §1

[15] = molecular target: Gal(b1-3)GlcNAc(b1-3)Gal(b1-4)GlcNAc(b1-2)Man(a1-3)[Gal(b1-3)GlcNAc(b1-3)Gal(b1-4)GlcNAc(b1-2)Man(a1-6)]Man(b1-4)GlcNAc(b1-4)GlcNAc
In short: as §1

[16] = molecular target: Gal(b1-3)GlcNAc(b1-3)Gal(b1-4)GlcNAc(b1-2)[Gal(b1-3)GlcNAc(b1-3)Gal(b1-4)GlcNAc(b1-6)]Man(a1-6)[Gal(b1-3)GlcNAc(b1-3)Gal(b1-4)GlcNAc(b1-2)Man(a1-3)]Man(b1-4)GlcNAc(b1-4)[Fuc(a1-6)]GlcNAc
In short: as §1

[17] = molecular target: Gal(b1-3)GlcNAc(b1-3)Gal(b1-4)GlcNAc(b1-3)Gal(b1-4)GlcNAc(b1-2)[Gal(b1-3)GlcNAc(b1-3)Gal(b1-4)GlcNAc(b1-3)Gal(b1-4)GlcNAc(b1-6)]Man(a1-6)[Gal(b1-3)GlcNAc(b1-3)Gal(b1-4)GlcNAc(b1-3)Gal(b1-4)GlcNAc(b1-2)Man(a1-3)]Man(b1-4)GlcNAc(b1-4)[Fuc(a1-6)]GlcNAc
In short: as §1

[18] = molecular target: Gal(b1-3)GlcNAc(b1-3)Gal(b1-4)GlcNAc(b1-6)[Gal(b1-3)GlcNAc(b1-3)]Gal(b1-4)Glc
In short: as §1

[19] = molecular target: Gal(b1-3)GlcNAc(b1-3)Gal(b1-4)[Fuc(a1-3)]GlcNAc
In short: as §1

[20] = molecular target: Gal(b1-3)GlcNAc(b1-3)Gal(b1-4)[Fuc(a1-3)]GlcNAc(b1-6)[Gal(b1-3)GlcNAc(b1-3)]Gal(b1-4)Glc
In short: as §1

[21] = molecular target: Gal(b1-3)GlcNAc(b1-3)GalNAc
In short: as §1

[22] = molecular target: Gal(b1-3)GlcNAc(b1-6)Gal(b1-4)GlcNAc
In short: as §1

[23] = molecular target: Gal(b1-3)GlcNAc(b1-6)GalNAc
In short: as §1

[24] = molecular target: Gal(b1-3)GlcNAc(b1-6)[Gal(b1-3)]GalNAc
In short: as §1

Gal(b1-3)GlcNAc6S = molecular target: Gal(b1-3)GlcNAc6S
In short: as §1

[25] = molecular target: Gal(b1-3)[Fuc(a1-4)]GlcNAc
In short: as §1

[26] = molecular target: Gal(b1-3)[Fuc(a1-4)]GlcNAc(b1-2)Man
In short: as §1

[27] = molecular target: Gal(b1-3)[Fuc(a1-4)]GlcNAc(b1-2)Man(a1-3)[Gal(b1-3)[Fuc(a1-4)]GlcNAc(b1-2)Man(a1-6)]Man(b1-4)GlcNAc(b1-4)[Fuc(a1-6)]GlcNAc
In short: as §1

[28] = molecular target: Gal(b1-3)[Fuc(a1-4)]GlcNAc(b1-3)Gal(b1-3)[Fuc(a1-4)]GlcNAc
In short: as §1

[29] = molecular target: Gal(b1-3)[Fuc(a1-4)]GlcNAc(b1-3)Gal(b1-4)[Fuc(a1-3)]GlcNAc
In short: as §1

[30] = molecular target: Gal(b1-3)[Fuc(a1-4)]GlcNAc(b1-6)GalNAc
In short: as §1

[31] = molecular target: Gal(b1-3)[GlcNAc(b1-6)]GalNAc
In short: as §1

[32] = molecular target: Gal(b1-3)[Neu5Ac(a2-6)]GalNAc
In short: as §1

[33] = molecular target: Gal(b1-3)[Neu5Ac(a2-6)]GlcNAc(b1-4)Gal(b1-4)Glc
In short: as §1

[34] = molecular target: Gal(b1-3)[Neu5Ac(b2-6)]GalNAc
In short: as §1

Gal(b1-4)Gal = molecular target: Gal(b1-4)Gal
In short: as §1

[35] = molecular target: Gal(b1-4)GalNAc(a1-3)[Fuc(a1-2)]Gal(b1-4)GlcNAc
In short: as §1

B1: Banana lectin (Musa acuminata) (protein)
chain: MNGAIKVGAWGGNGGSAFDMGPAYRIISVKIFSGDVVDGVDVTFTYYGKTETRHYGGSGGTPHEIVLQEGEYLVGMAGEVANYHGAVVLGKLGFSTNKKAYGPFGNTGGTPFSLPIAAGKISGFFGRGGKFLDAIGVYLEPLEHHHHHH
For B1, the “glycan array binding signal (z-score)” value (Gal(a1-6)Glc) was -0.231, the “glycan array binding signal (z-score)” value (Gal(b1-2)Gal) was -0.207 and the “glycan array binding signal (z-score)” value (Gal(b1-3)Gal) was -0.227. For the same binder, the “glycan array binding signal (z-score)” value (Gal(b1-3)Gal(b1-4)GlcNAc) was -0.247, the “glycan array binding signal (z-score)” value (Gal(b1-3)GalNAc) was -0.206 and the “glycan array binding signal (z-score)” value [1] was -0.18. For the same binder, the “glycan array binding signal (z-score)” value [2] was -0.175, the “glycan array binding signal (z-score)” value (Gal(b1-3)GalNAc(b1-3)Gal) was -0.212 and the “glycan array binding signal (z-score)” value [3] was -0.196. For the same binder, the “glycan array binding signal (z-score)” value [4] was -0.278, the “glycan array binding signal (z-score)” value [5] was -0.225 and the “glycan array binding signal (z-score)” value (Gal(b1-3)GlcNAc) was -0.219. For the same binder, the “glycan array binding signal (z-score)” value [6] was 3.29, the “glycan array binding signal (z-score)” value [7] was -0.019 and the “glycan array binding signal (z-score)” value (Gal(b1-3)GlcNAc(b1-2)Man) was -0.219. For the same binder, the “glycan array binding signal (z-score)” value [8] was 0.694, the “glycan array binding signal (z-score)” value [9] was 0.187 and the “glycan array binding signal (z-score)” value [10] was 1.07. For the same binder, the “glycan array binding signal (z-score)” value [11] was 0.504, the “glycan array binding signal (z-score)” value [12] was -0.206 and the “glycan array binding signal (z-score)” value [13] was -0.206. For the same binder, the “glycan array binding signal (z-score)” value [14] was -0.264, the “glycan array binding signal (z-score)” value [15] was -0.106 and the “glycan array binding signal (z-score)” value [16] was 0.634. For the same binder, the “glycan array binding signal (z-score)” value [17] was 0.372, the “glycan array binding signal (z-score)” value [18] was -0.195 and the “glycan array binding signal (z-score)” value [19] was -0.216. The “glycan array binding signal (z-score)” value [20] was -0.216, the “glycan array binding signal (z-score)” value [21] was -0.218 and the “glycan array binding signal (z-score)” value [22] was -0.211. The “glycan array binding signal (z-score)” value [23] was -0.193, the “glycan array binding signal (z-score)” value [24] was 0.054 and the “glycan array binding signal (z-score)” value (Gal(b1-3)GlcNAc6S) was -0.18. The “glycan array binding signal (z-score)” value [25] was -0.199, the “glycan array binding signal (z-score)” value [26] was -0.215 and the “glycan array binding signal (z-score)” value [27] was 0.091. For the same binder, the “glycan array binding signal (z-score)” value [28] was -0.176, the “glycan array binding signal (z-score)” value [29] was -0.231 and the “glycan array binding signal (z-score)” value [30] was -0.237. For the same binder, the “glycan array binding signal (z-score)” value [31] was -0.223, the “glycan array binding signal (z-score)” value [32] was -0.213 and the “glycan array binding signal (z-score)” value [33] was -0.235. The “glycan array binding signal (z-score)” value [34] was -0.447, the “glycan array binding signal (z-score)” value (Gal(b1-4)Gal) was -0.228 and the “glycan array binding signal (z-score)” value [35] was -0.242.
